Paper PMC4336329 (PLoS ONE, 2015)
Among all 310,000 compounds or so, about 2,200 (0.71%) showed an effect of 50% or more. The effect is printed as a negative number. The list shows a part of the results.

What follows are compounds tested against human ether-à-go-go-related gene (hERG) potassium channel (human, UniProt Q12809) (assay: primary screen, population patch clamp on CHO cells stably expressing hERG).
human ether-à-go-go-related gene (hERG) potassium channel, sequence (Q12809 whole entry, looked up): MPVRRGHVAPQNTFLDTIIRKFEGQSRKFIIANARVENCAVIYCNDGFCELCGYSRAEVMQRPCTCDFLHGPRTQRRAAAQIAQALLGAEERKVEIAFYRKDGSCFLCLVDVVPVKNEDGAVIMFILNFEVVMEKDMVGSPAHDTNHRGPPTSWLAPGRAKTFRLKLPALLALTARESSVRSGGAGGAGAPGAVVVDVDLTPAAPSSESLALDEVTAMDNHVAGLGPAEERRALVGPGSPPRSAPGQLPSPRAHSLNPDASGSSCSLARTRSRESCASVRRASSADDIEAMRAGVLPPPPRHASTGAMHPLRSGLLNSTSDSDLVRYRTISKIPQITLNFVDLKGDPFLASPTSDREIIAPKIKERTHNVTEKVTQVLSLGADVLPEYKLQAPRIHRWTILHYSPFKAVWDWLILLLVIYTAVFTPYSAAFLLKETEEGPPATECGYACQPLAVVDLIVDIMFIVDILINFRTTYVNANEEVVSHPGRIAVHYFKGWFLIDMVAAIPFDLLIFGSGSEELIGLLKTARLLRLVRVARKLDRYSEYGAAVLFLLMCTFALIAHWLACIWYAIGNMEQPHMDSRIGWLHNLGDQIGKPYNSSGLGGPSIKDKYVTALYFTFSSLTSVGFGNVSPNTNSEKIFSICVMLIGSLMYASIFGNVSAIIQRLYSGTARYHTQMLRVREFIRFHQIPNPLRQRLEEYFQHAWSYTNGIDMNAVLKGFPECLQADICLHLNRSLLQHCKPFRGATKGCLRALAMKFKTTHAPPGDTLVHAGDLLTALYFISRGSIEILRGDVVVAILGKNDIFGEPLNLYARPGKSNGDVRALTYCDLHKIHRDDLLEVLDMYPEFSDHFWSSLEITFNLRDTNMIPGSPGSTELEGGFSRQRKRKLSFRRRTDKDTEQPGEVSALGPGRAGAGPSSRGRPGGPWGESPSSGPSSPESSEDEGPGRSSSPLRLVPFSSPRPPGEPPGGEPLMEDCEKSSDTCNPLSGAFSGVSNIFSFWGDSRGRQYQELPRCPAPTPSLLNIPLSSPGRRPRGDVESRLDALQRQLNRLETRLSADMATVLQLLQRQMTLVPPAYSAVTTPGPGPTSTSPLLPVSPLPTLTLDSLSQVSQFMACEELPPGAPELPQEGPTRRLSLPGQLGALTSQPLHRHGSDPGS

| Structure (SMILES) | hERG current change (%, negative = inhibition) at 1uM |
| --- | --- |
| COc1ccc(-c2cc(C(=O)O)c(C)o2)cc1OC | 0.404% |
| COc1cc2nc(NC(=O)c3ccc(Cl)cc3)sc(=O)c2cc1OC | 11.4% |
| COc1ccc(CNC(=O)[C@@H]2CC=C[C@@H]3CCN(C4CC4)C(=O)[C@@H]32)cc1 | 8.64% |
| N=c1c(C(=O)NCc2ccc3c(c2)OCO3)cc2c(=O)n3ccccc3nc2n1Cc1cccnc1 | -51.5% |
| O=C(O)c1cccc(Cl)n1 | 6.87% |
| CN(CC(=O)Nc1cccc(F)c1)C(=O)c1cc2c(s1)CCCCC2 | 17.3% |
| O=C(CN1C(=O)CCC1=O)Nc1cccc2c1C(=O)NC2=O | 6.17% |
| Cc1cc(C)n(-c2ccc(NC(=O)C3CCCCN3C(=O)c3occc3C)cc2)n1 (stereo not drawn) | 3.61% |
| COc1ccc(-c2csc(Nc3cccnc3)n2)cc1 | 22.4% |
| O=C(O)C1CCN(C(=O)c2ccc3c(c2)OCO3)CC1 | 5.91% |
| Cc1c(N(C)C(=O)C2CCCN2S(=O)(=O)c2ccccc2)c(=O)n(-c2ccccc2)n1C (stereo not drawn) | 16.2% |
| CCC(C)C1C(C#N)=C(N)Oc2n[nH]c(C)c21 (stereo not drawn) | 14.1% |
| COC(=O)c1c(NC(=O)c2c(OC)cccc2OC)sc2c1C(C(=O)OC)CC2 (stereo not drawn) | 8.6% |
| COc1ccc(-c2csc(NC(=S)NC(=O)c3cccs3)n2)cc1Br | 11.5% |
| Cc1noc(C)c1CSc1ccccc1C(=O)OC(C)C(N)=O (stereo not drawn) | 22.5% |
| CC(=O)c1cc(CN2CCCCC2)cc(OC(C)C)c1.Cl | 9.09% |
| O=C1COc2ccc(C(=O)COC(=O)Cc3ccsc3)cc2N1 | -11% |
| CSCCC(NS(=O)(=O)c1cccs1)C(=O)NCc1cccs1 (stereo not drawn) | -1.88% |
| CCn1ccnc1CN(C)Cc1c(C(=O)N2CCCCCCC2)nc2ccc(Cl)cn12 | -15.2% |
| Cc1cccn2c(CNCC(C)Oc3cccnc3)c(C(=O)N3CCOCC3)nc12 (stereo not drawn) | 9.46% |
| COc1cccc(OCc2cc(C(=O)N3CCCC3c3ccccn3)no2)c1 (stereo not drawn) | 11.1% |
| O=C(Cn1nc(C(=O)O)c2ccccc2c1=O)NCC1CCCO1 (stereo not drawn) | 14.8% |

| Structure (SMILES) | hERG current change (%, negative = inhibition) at 1uM |
| --- | --- |
| CC(C)COc1ccc(C(=O)CCN2CCCCC2)cc1.Cl | -22.9% |
| COc1ccc(C(=O)NCc2nnc(SCC(=O)N3CCCc4ccccc43)o2)cc1OC | 11.3% |
| O=C(CSc1nc(-c2ccccc2)cc(=O)[nH]1)N1CCOCC1 | 11.5% |
| O=C1CC(N(O)c2ccccc2)C(=O)N1c1ccc(Cl)c(Cl)c1 (stereo not drawn) | 10.5% |
| O=C(CNC(=O)c1ccccc1)NCCc1nc2ccccc2[nH]1 | 5.84% |
| O=C(O)c1ccccc1N=Nc1ccc(O)cc1 | 5.93% |
| O=C(CCSCCc1ccccn1)Nc1cccc([N+](=O)[O-])c1 | 0.209% |
| O=S(=O)(c1ccc(F)cc1)N1CCn2c(nc3ccccc32)C1 | 18.9% |
| Cc1nc(Oc2ccccc2)c2ccsc2n1 | 2.99% |
| CN1CCC(N(C)C(=O)Cc2ccccc2[N+](=O)[O-])CC1 | 13.3% |
| COC(=O)c1sc(NC(=O)CSc2nc3cccnc3n2C)nc1C | 3.03% |
| COC(=O)c1cc(NC(=O)c2cc(C(C)(C)C)nn2Cc2ccc(F)cc2)ccc1N1CCOCC1 | 6.17% |
| Cc1[nH]nc(-c2ccc(OCc3cnn(-c4ccccc4)c3)cc2O)c1Oc1ccc(F)cc1 | 19.4% |
| O=C(/C=C/c1ccc(Cl)c(C(F)(F)F)c1)N1CCN(c2ccccn2)CC1 | 2.66% |
| Clc1ccc(OCc2nnc(-c3ccccc3Br)o2)cc1 | 3.75% |
| Cc1cc(NC(=O)C(C)SCC(=O)Nc2ccccc2N2CCCC2)no1 (stereo not drawn) | 20.9% |
| Cc1nc(COC(=O)c2c(C)nn(-c3ccccc3)c2C)cs1 | 8.52% |
| COc1ccc(CCNC(=O)c2cc3c(=O)n(C)c4ccccc4c3n2C)cc1OC | 2.13% |
| Cc1nc2ccc(N3C(=O)CCC3=O)cc2[nH]1 | 5.6% |
| O=C(CN1CCC2(CC1)OCCO2)c1c[nH]c2ccccc12 | 13.5% |
| CCc1ccc(NC(=O)/C(C#N)=C\c2ccc(OC)c(C(=O)O)c2)cc1 | 15.1% |
| Cc1cc(C(=O)Nc2ccc(S(=O)(=O)Nc3onc(C)c3C)cc2)cs1 | 11.1% |

| Structure (SMILES) | hERG current change (%, negative = inhibition) at 1uM |
| --- | --- |
| Cn1c(SCC(=O)c2ccc(F)cc2)nc2cccnc21 | 2.78% |
| CCc1ccc2nc(Nc3nc(COC)cc(=O)[nH]3)nc(C)c2c1 | -64.8% |
| COn1c(=O)c(-c2cccs2)[n+]([O-])c2ccccc21 | 3.29% |
| Cc1ccc(NCCc2ccc(C)nc2)cc1 | 10.5% |
| COc1cccc(CNC(=O)Cn2c(=O)oc3ccccc32)c1OC | 8.56% |
| Cn1c(=O)c2c(SCc3cccc(C(F)(F)F)c3)nc(-c3ccco3)nc2n(C)c1=O | 2.39% |
| CCOC(=O)c1c(NC(=O)CSc2nc3cc(Cl)ccc3c(=O)n2Cc2ccco2)sc(C(=O)N(C)C)c1C | 6.3% |
| O=C(Nc1cccc(O)c1)c1cc(-c2ccco2)on1 | 12.6% |
| CN1CCCN(C(=O)/C=C/c2ccc(Cl)cc2Cl)CC1.Cl | -25.7% |
| O=C(NCCCN1CCOCC1)c1cc(-c2ccc(O)cc2)on1 | 1.06% |
| Cn1nc(-c2ccc(C(=O)NC3CCCCC3)cc2)c2ccccc2c1=O | -2.57% |
| COc1ccccc1C(=O)NCC(=O)N1CC=C(c2ccccc2)CC1 | 11.7% |
| Cc1cccc(NC(=S)N(CCN(C)C)C(C)c2ccco2)c1 (stereo not drawn) | 7.21% |
| O=C(COc1ccc(S(=O)(=O)N2CCCCC2)cc1Cl)N1CCCC1 | 4.16% |
| COc1cc(/C=C/C(=O)OC(C)C(=O)Nc2c(C)n(C)n(-c3ccccc3)c2=O)ccc1OCC#N (stereo not drawn) | 9.33% |
| CC1CCc2sc(C(=O)OCC(=O)NC(C)C)cc2C1 (stereo not drawn) | -1.28% |
| CC(C)Sc1nnc(-c2c[nH]c3ccccc23)n1C | 10.5% |
| CCCNC(=O)OC[C@H]1O[C@H](CCO/N=C(\C)CCN2CCc3nc(-c4ccccc4)c(-c4ccccc4)cc3C2)C=C[C@@H]1Oc1ccc(OC)cc1 | 8.32% |
| Cc1cc(C)n(/N=C/c2ccccc2O)c(=O)c1 | 3.08% |
| Cl.O=C(O)c1cccc(Nc2ncnc3c2cnn3-c2ccccc2)c1 | 12.7% |
| COc1ccc(NC(=O)CSc2nnc(C)c(=O)n2N)cc1 | 13.3% |
| O=C1NC2(CCN(Cc3ccccc3)CC2)Oc2ccccc21 | 8.51% |

| Structure (SMILES) | hERG current change (%, negative = inhibition) at 1uM |
| --- | --- |
| Cc1nccc(-c2cccc(NC(=O)c3ccccc3Cl)c2)n1 | 7.23% |
| COc1ccccc1CNC(=O)C(NS(=O)(=O)c1ccc2c(c1)OCCO2)C(C)C (stereo not drawn) | 6.69% |
| Cc1ccc(-n2nc(C)c3c(-c4cccs4)c(C#N)c(N)nc32)cc1 | 12.7% |
| Cn1c(-c2ccsc2)c(-c2cccs2)c2cc(-c3ccc4[nH]ccc4c3)ccc21 | 8.24% |
| CC(C)OC(=O)C1=C2SCC(=O)N2C(N)=C(C#N)C1 | 10.4% |
| COc1ccccc1NC(=O)C(=O)NCCC1CCCCN1S(=O)(=O)c1ccccc1 (stereo not drawn) | 16.6% |
| COc1ccc(NC(=O)COC(=O)c2cc(SC)ccc2Cl)c(OC)c1 | 6.64% |
| CCOC(=O)C1CCCN(Cc2nc(Cc3ccccc3Cl)no2)C1 (stereo not drawn) | -2.77% |
| Cc1c(-n2c(O)c(C3=c4ccccc4=NC3=O)sc2=S)c(=O)n(-c2ccccc2)n1C | 13.7% |
| CCOc1ccc(S(=O)(=O)N2CCC(C(=O)NC3CC3)CC2)cc1C | 11.7% |
| Cn1c(=O)[nH]c(=O)c2c1nc(Sc1nc3ccccc3s1)n2Cc1ccccc1 | 6.69% |
| COc1ccccc1NC(=O)N1CCN(Cc2ccc3c(c2)OCO3)CC1.O=C(O)C(=O)O | 12.1% |
| C[C@]1(C(=O)NCc2cc(F)cc(C(F)(F)F)c2)C=C[C@@H](Cc2ccccc2)N1C(=O)c1ccccc1 | 14.5% |
| Cc1cccc2c(=O)cc(C)n(Cc3ccccc3)c12 | 11% |
| COc1cc(OC)cc(C2=NC3(CCC(C)CC3)NC2=S)c1 (stereo not drawn) | 2.73% |
| O=C(C1=C[C@@H](C2CCCCC2)C[C@@H](OCc2ccc(CO)cc2)O1)N1CCN(Cc2ccc3c(c2)OCO3)CC1 | 12.2% |
| CCSC1=NC(=O)/C(=C2/C=Cc3ccccc3N2CC)S1 | 8.6% |
| COc1cc(OC)cc(-c2c(-c3cccs3)c3cc(-c4ccc5c(c4)OCCO5)ccc3n2C)c1 | 20.7% |
| COC(=O)COc1ccccc1/C=C1/NC(=O)NC1=O | 8.13% |
| O=C(CN(c1ccc2c(c1)OCCO2)S(=O)(=O)c1ccccc1)Nc1ccc2c(c1)OCO2 | 2.01% |
| Cc1cccc(OCC(=O)Nc2ccc3oc(=O)ccc3c2)c1C | 11.6% |
